# Results reported in a collection of fitness landscapes (doi:10.1126/science.1257360).
# This is one part of the list.
# B1: PhoQ; a variant is named by its letters at X, in order, P23837 (parent)
# chain: MKKLLRLFFPLSLRVRFLLATAAVVLVLSLAYGMVALIGYSVSFDKTTFRLLRGESNLFYTLAKWENNKLHVELPENIDKQSPTMTLIYDENGQLLWAQRDVPWLMKMIQPDWLKSNGFHEIEADVNDTSLLLSGDHSIQQQLQEVREDDDDAEMTHSVAVNVYPATSRMPKLTIVVVDTIPVELKSSYMVWSWFIYVLSANLLLVIPLLWVAAWWSLRPIEALAKEVRELEEHNRELLNPATTRELTSLVRNLNRLLKSERERYDKYRTTLTDLTHSLKTPLXXLQXXLRSLRSEKMSVSDAEPVMLEQISRISQQIGYYLHRASMRGGTLLSRELHPVAPLLDNLTSALNKVYQRKGVNISLDISPEISFVGEQNDFVEVMGNVLDNACKYCLEFVEISARQTDEHLYIVVEDDGPGIPLSKREVIFDRGQRVDTLRPGQGVGLAVAREITEQYEGKIVAGESMLGGARMEVIFGRQHSAPKDE
# Variants of: B1
# Assay: enrichment ratio after two sorts for PhoP signalling (ratio (wild type AVST 3.29)); higher = more functional
# Details: with PhoP (E. coli)
row,Variant,enrichment ratio
1,NAHN,≤ 0.25
2,PLTK,≤ 0.25
3,DGGW,≤ 0.25
4,FTVR,≤ 0.25
5,VDFA,≤ 0.25
6,IRGW,≤ 0.25
7,YHKV,≤ 0.25
8,HHVK,≤ 0.25
9,GIGL,8.6
10,DAWT,≤ 0.25
11,WDRL,≤ 0.25
12,NYKV,≤ 0.25
13,PAVV,≤ 0.25
14,NQFE,≤ 0.25
15,VFPD,≤ 0.25
16,WFVH,≤ 0.25
17,ALTQ,8.14
18,PDLV,≤ 0.25
19,QDHT,≤ 0.25
20,WHPM,≤ 0.25
21,AQVG,12
22,YKTI,0.324
23,EAEC,≤ 0.25
24,SSGF,8.38

row,Variant,enrichment ratio
1,DPMT,≤ 0.25
2,FGNV,≤ 0.25
3,LRKY,≤ 0.25
4,WRLA,≤ 0.25
5,SLHG,≤ 0.25
6,QLNV,≤ 0.25
7,RTWP,≤ 0.25
8,FYLG,≤ 0.25
9,HTAP,≤ 0.25
10,GVKH,≤ 0.25
11,TIGP,≤ 0.25
12,KETS,≤ 0.25
13,ATVV,10.2
14,SYKW,≤ 0.25
15,ARHI,≤ 0.25
16,PYTN,≤ 0.25
17,IGMF,≤ 0.25
18,MYTP,≤ 0.25
19,NYVQ,≤ 0.25
20,RVGM,≤ 0.25
21,FMHQ,≤ 0.25
22,NSMI,2.19
23,AKTD,≤ 0.25
24,HRGQ,≤ 0.25

row,Variant,enrichment ratio
1,YSMS,≤ 0.25
2,LACQ,≤ 0.25
3,IEYR,≤ 0.25
4,KYWN,≤ 0.25
5,VTVW,≤ 0.25
6,FPCQ,≤ 0.25
7,DWQH,≤ 0.25
8,MIDW,≤ 0.25
9,MING,≤ 0.25
10,LDWE,≤ 0.25
11,ESMG,≤ 0.25
12,MDID,≤ 0.25
13,LQSV,≤ 0.25
14,MNWR,≤ 0.25
15,ADVT,≤ 0.25
16,DGSF,≤ 0.25
17,DKWD,≤ 0.25
18,GYHR,≤ 0.25
19,FKCW,≤ 0.25
20,DRAM,≤ 0.25
21,ETQS,≤ 0.25
22,HTHL,≤ 0.25
23,NKWD,≤ 0.25
24,TFDQ,≤ 0.25

row,Variant,enrichment ratio
1,DEPL,≤ 0.25
2,RDCE,≤ 0.25
3,ARGV,≤ 0.25
4,MRAF,≤ 0.25
5,LGWF,≤ 0.25
6,PKHH,≤ 0.25
7,QWYR,≤ 0.25
8,PMMT,≤ 0.25
9,GYED,≤ 0.25
10,ETFV,≤ 0.25
11,SWFF,≤ 0.25
12,MTRF,≤ 0.25
13,LDTL,≤ 0.25
14,ATFD,≤ 0.25
15,QGVQ,≤ 0.25
16,TDWG,≤ 0.25
17,IWRH,≤ 0.25
18,NEDL,≤ 0.25
19,GYDF,≤ 0.25
20,DVHM,≤ 0.25
21,MRMN,≤ 0.25
22,NRVK,≤ 0.25
23,MLHD,≤ 0.25
24,RQWG,≤ 0.25

row,Variant,enrichment ratio
1,FYCQ,≤ 0.25
2,GLLE,0.585
3,FSML,12.7
4,SIRG,≤ 0.25
5,IWDG,≤ 0.25
6,HSND,≤ 0.25
7,YDIW,≤ 0.25
8,LDED,≤ 0.25
9,FWVC,≤ 0.25
10,QTTF,≤ 0.25
11,FMKF,≤ 0.25
12,WDVK,≤ 0.25
13,MVLY,≤ 0.25
14,EQWF,≤ 0.25
15,KRST,≤ 0.25
16,THKG,≤ 0.25
17,HPAV,≤ 0.25
18,DWDF,≤ 0.25
19,PNVG,≤ 0.25
20,GQRN,≤ 0.25
21,ECML,≤ 0.25
22,TSQP,≤ 0.25
23,PETH,≤ 0.25
24,AGCM,13.6

row,Variant,enrichment ratio
1,YCLV,3.43
2,YNGT,≤ 0.25
3,ETYL,≤ 0.25
4,DLHT,≤ 0.25
5,GRPT,≤ 0.25
6,TKWH,≤ 0.25
7,RKGM,≤ 0.25
8,GGHQ,≤ 0.25
9,EVLV,≤ 0.25
10,LGDI,≤ 0.25
11,RLWQ,≤ 0.25
12,AEGC,2.22
13,EYSL,≤ 0.25
14,LAIN,≤ 0.25
15,MQWI,14.4
16,NTSQ,≤ 0.25
17,FCQR,≤ 0.25
18,LICH,≤ 0.25
19,AKTT,3.25
20,GTMK,≤ 0.25
21,VCLW,≤ 0.25
22,KFEI,≤ 0.25
23,KVMI,≤ 0.25
24,WRDH,≤ 0.25

row,Variant,enrichment ratio
1,PHKQ,≤ 0.25
2,YSCC,≤ 0.25
3,LNTQ,≤ 0.25
4,SASP,≤ 0.25
5,KMIR,≤ 0.25
6,DFEL,≤ 0.25
7,NGTS,≤ 0.25
8,PAYI,≤ 0.25
9,EGQC,≤ 0.25
10,VMKA,≤ 0.25
11,WLTT,≤ 0.25
12,HWIM,≤ 0.25
13,ILYV,≤ 0.25
14,ADWL,≤ 0.25
15,RCRT,≤ 0.25
16,SWLD,≤ 0.25
17,SGNF,≤ 0.25
18,TKGR,≤ 0.25
19,IHCL,≤ 0.25
20,GNGY,≤ 0.25
21,SEAC,19.8
22,TAPV,≤ 0.25
23,DLPS,≤ 0.25
24,IFRF,≤ 0.25

row,Variant,enrichment ratio
1,MWVH,≤ 0.25
2,LLSG,≤ 0.25
3,YPVY,≤ 0.25
4,VRTS,≤ 0.25
5,SSHF,≤ 0.25
6,PNCP,0.425
7,MDHM,≤ 0.25
8,DRKV,≤ 0.25
9,RTNW,≤ 0.25
10,GDWT,≤ 0.25
11,EPCP,≤ 0.25
12,ACIM,30.7
13,RRPC,≤ 0.25
14,PYLT,≤ 0.25
15,GKHF,≤ 0.25
16,DGEV,≤ 0.25
17,LEKK,≤ 0.25
18,VINI,≤ 0.25
19,YGEA,≤ 0.25
20,VKAK,≤ 0.25
21,ILEF,≤ 0.25
22,TKLK,≤ 0.25
23,RPNL,≤ 0.25
24,TVYH,≤ 0.25

row,Variant,enrichment ratio
1,NHGD,≤ 0.25
2,FLIE,≤ 0.25
3,TIWN,≤ 0.25
4,NIHH,≤ 0.25
5,NSIG,≤ 0.25
6,GLHN,≤ 0.25
7,TIKM,≤ 0.25
8,GTYS,≤ 0.25
9,GLCC,≤ 0.25
10,KMGC,≤ 0.25
11,RYWY,≤ 0.25
12,AIWP,≤ 0.25
13,ILGH,≤ 0.25
14,LFQG,≤ 0.25
15,RCYC,≤ 0.25
16,IHMT,≤ 0.25
17,YEIY,≤ 0.25
18,YWYS,≤ 0.25
19,AMPN,≤ 0.25
20,IYCL,≤ 0.25
21,SCTC,7.94
22,EIKV,≤ 0.25
23,SMWS,≤ 0.25
24,LASL,≤ 0.25

row,Variant,enrichment ratio
1,FTPH,≤ 0.25
2,SYGD,≤ 0.25
3,SNNE,3.95
4,LNYW,≤ 0.25
5,HAIV,≤ 0.25
6,RGSA,≤ 0.25
7,VEWR,≤ 0.25
8,HHDV,≤ 0.25
9,FQSH,≤ 0.25
10,TFDM,≤ 0.25
11,HGKS,≤ 0.25
12,VSQH,≤ 0.25
13,LHWA,0.535
14,GTWD,≤ 0.25
15,YQIF,≤ 0.25
16,NFED,≤ 0.25
17,MGYV,13.4
18,ETFK,≤ 0.25
19,STSP,≤ 0.25
20,DAHS,≤ 0.25
21,EAHQ,≤ 0.25
22,DCNV,≤ 0.25
23,LPWF,≤ 0.25
24,KNDP,≤ 0.25

row,Variant,enrichment ratio
1,TPKV,≤ 0.25
2,RTHM,≤ 0.25
3,MSYQ,5.85
4,KYDL,≤ 0.25
5,MTSY,≤ 0.25
6,KGWT,≤ 0.25
7,WQHR,≤ 0.25
8,FMCG,≤ 0.25
9,WKTA,≤ 0.25
10,DKRS,≤ 0.25
11,EKMA,≤ 0.25
12,LPDD,≤ 0.25
13,KMDL,≤ 0.25
14,FESN,≤ 0.25
15,NLPK,≤ 0.25
16,QTKC,≤ 0.25
17,LQPN,≤ 0.25
18,FNTK,≤ 0.25
19,AMGF,≤ 0.25
20,QLSC,≤ 0.25
21,MEQN,≤ 0.25
22,PQVT,≤ 0.25
23,TEQR,4.96
24,FTWR,≤ 0.25

row,Variant,enrichment ratio
1,WYMS,≤ 0.25
2,FCNY,≤ 0.25
3,SRLT,≤ 0.25
4,LRWQ,≤ 0.25
5,VYNQ,≤ 0.25
6,AKFP,≤ 0.25
7,DDRC,≤ 0.25
8,KLLI,≤ 0.25
9,KTEM,≤ 0.25
10,HDTI,≤ 0.25
11,GLYM,≤ 0.25
12,EVQF,3.3
13,PPFY,≤ 0.25
14,VYPS,≤ 0.25
15,AFCL,0.756
16,AQKY,≤ 0.25
17,HRMT,≤ 0.25
18,IHTN,≤ 0.25
19,KDHM,≤ 0.25
20,ICDT,≤ 0.25
21,TTNM,4.46
22,MFHK,≤ 0.25
23,PHGL,≤ 0.25
24,WYWC,≤ 0.25

row,Variant,enrichment ratio
1,GIQG,≤ 0.25
2,DWAY,≤ 0.25
3,PNAF,≤ 0.25
4,TRAK,≤ 0.25
5,MYKA,≤ 0.25
6,SFVD,≤ 0.25
7,FLTE,≤ 0.25
8,IQNA,≤ 0.25
9,RCTG,≤ 0.25
10,FEVV,11.9
11,QATN,≤ 0.25
12,VTLN,1.75
13,DVNV,≤ 0.25
14,NYWD,≤ 0.25
15,WTCG,≤ 0.25
16,TIIL,≤ 0.25
17,AAAL,4.97
18,MVST,1.58
